Assay results reported in PMC7819943, “Rice protein-binding microarrays: a tool to detect cis-acting elements near promoter regions in rice”.
The other results are listed elsewhere or left out.

target: T1, OsWOX13 (Oryza sativa, UniProt Q5QMM3 1-267); assay: protein-binding microarray (RPBM); PBS, 2% BSA, 51.3 ng/ul salmon testes DNA, 50 uM zinc acetate, 200 nM TF, 25 C, 1 h; high values mean tight binding; conditions: protein: recombinant; tags: N-terminal polyhistidine and DsRed monomer fusion (pET32a); label: CyDye5-dUTP incorporated in the synthesized complementary strand; 3' TTTTT single-stranded linker to array surface; dsDNA, one strand shown
T1 sequence: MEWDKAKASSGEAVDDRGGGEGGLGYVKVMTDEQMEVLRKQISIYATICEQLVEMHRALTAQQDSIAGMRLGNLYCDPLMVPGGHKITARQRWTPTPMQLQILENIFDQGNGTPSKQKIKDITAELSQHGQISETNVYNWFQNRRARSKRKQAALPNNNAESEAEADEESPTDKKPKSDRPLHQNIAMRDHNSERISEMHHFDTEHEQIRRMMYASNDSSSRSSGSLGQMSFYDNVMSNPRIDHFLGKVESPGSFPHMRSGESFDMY
Summary of the method: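 Binding signal is defined as the fluorescence intensity of each feature in arbitrary units, read on an Axon 4000B scanner. Transcription factors with N-terminal polyhistidine and DsRed fusions came from E. coli BL21-CodonPlus and were purified on Ni–NTA. They were incubated at 200 nM for 1 h at 25 °C on a custom Agilent array that had been made double-stranded with Cy5-dUTP, with 50 µM zinc acetate present, and the array was washed.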

Sequence	binding signal
TTTCCTAATTTATATAGTACTCCTATCTCGTCAGCTGCTTCGGAGTCACCTAGTGCAG	7930 fluorescence intensity (a.u.)
AAATTTGATTTCATAATTTCTAAATCTTGTATAAATGAAGCGGAGTCACCTAGTGCAG	15700 fluorescence intensity (a.u.)
CTGATTAACTTGCGTGTTGCACTATCGATAGATGAGAGCACGGAGTCACCTAGTGCAG	14100 fluorescence intensity (a.u.)
TGATGGATTGCCATCCTGATTAAGATTTCCTCCTAAAGAGCGGAGTCACCTAGTGCAG	13800 fluorescence intensity (a.u.)
CGCTAATATTAAACTGAGGAATGTAGAGTCATCAGGTTTACGGAGTCACCTAGTGCAG	3620 fluorescence intensity (a.u.)
CGACTCCAAATTAAATTTCATGAAATTTCAAAGAATGGCACGGAGTCACCTAGTGCAG	8500 fluorescence intensity (a.u.)
GGTTGGACTGGCAAATTAAAGCCACAGTGACATGACCTGACGGAGTCACCTAGTGCAG	5930 fluorescence intensity (a.u.)
TTCTGGAATATTGGAAATTGATTAATAACGGAAAGGAATACGGAGTCACCTAGTGCAG	9420 fluorescence intensity (a.u.)
TAAAATTGATGTCATTAGATTTATCATTCAACAAGCTATCCGGAGTCACCTAGTGCAG	27000 fluorescence intensity (a.u.)
CGAAGATTGATCGGATTTGAGGTCCCGCTTGAATCAGTTGCGGAGTCACCTAGTGCAG	35000 fluorescence intensity (a.u.)
AAAATTATGGTAATTCAAAGTTAGAATGATAAATATTGTGCGGAGTCACCTAGTGCAG	7040 fluorescence intensity (a.u.)
TCAAATTAAACTAGGTGAATATTATTGTTATGCATATAGGCGGAGTCACCTAGTGCAG	11400 fluorescence intensity (a.u.)
CTGAAACTAAAGGCTTTGATTGATTTTCTAATCAATTGATCGGAGTCACCTAGTGCAG	25200 fluorescence intensity (a.u.)
GACTAATTATGCTTAATAAATTCATCTCACAGTTTACATGCGGAGTCACCTAGTGCAG	32600 fluorescence intensity (a.u.)
ATCTAATTTGCACCGGTTTTGATAGTTGAGGGACCCGTTGCGGAGTCACCTAGTGCAG	25400 fluorescence intensity (a.u.)
AAGGTAAATTAGAAGGGGATATTTGTAATAAATTAGTTTACGGAGTCACCTAGTGCAG	10000 fluorescence intensity (a.u.)
GGTATTCAATTTGGATTGATGGGAAACTTAAACTAGTGAGCGGAGTCACCTAGTGCAG	18900 fluorescence intensity (a.u.)
ACCTAAATTGCCCTTTGGTTATGAGAACTTCGAGAAGACGCGGAGTCACCTAGTGCAG	20200 fluorescence intensity (a.u.)
TACCTGTGACGGGCAATCGAAATGGTCACTGATGACCGTCCGGAGTCACCTAGTGCAG	3320 fluorescence intensity (a.u.)
CTAATCTTGATTATTTCCATGTACTGTAGTATTGTACTGACGGAGTCACCTAGTGCAG	7540 fluorescence intensity (a.u.)
ATATCGATCTCTCTTAATTAATTTCCCATCCAATCCAGTGCGGAGTCACCTAGTGCAG	5100 fluorescence intensity (a.u.)

Sequence	binding signal
GGTGATGACATGCATCACCCACAATGACAACGAGCACTGCCGGAGTCACCTAGTGCAG	5000 fluorescence intensity (a.u.)
GTACTAAAACCTCATTAATTGATCAAGGCAGCGAGTAGCCCGGAGTCACCTAGTGCAG	13200 fluorescence intensity (a.u.)
ATTATATTAGAACAAATTAACATCCAAGAATCACTTTGTACGGAGTCACCTAGTGCAG	4540 fluorescence intensity (a.u.)
ACTAATTGATCATCGTGATCGTCATCATCTTCATTTGTCTCGGAGTCACCTAGTGCAG	39200 fluorescence intensity (a.u.)
TTGGATTTGAATAATTGGGAATCATCACAGTCCGTATGCACGGAGTCACCTAGTGCAG	31900 fluorescence intensity (a.u.)
AAGCCTAATTAATCCGTCATTAGCAAATATTTACTGTAGCCGGAGTCACCTAGTGCAG	27800 fluorescence intensity (a.u.)
AGTATATTTAATAATGAATTAAATGATAGGAATAGTTACTCGGAGTCACCTAGTGCAG	6740 fluorescence intensity (a.u.)
ATATTGATTGATTGGTTATTCGCAAGAAACATGACTGTTCCGGAGTCACCTAGTGCAG	63800 fluorescence intensity (a.u.)
TTTTATTGAGTTTATGCCTGTCAATTTTCAACCAAATTCACGGAGTCACCTAGTGCAG	4650 fluorescence intensity (a.u.)
ACTGTAATTAGCCCAGCAAATTAATGTACAATGAACATGTCGGAGTCACCTAGTGCAG	23400 fluorescence intensity (a.u.)
TTGTATAAATGAGCTATCAGATTGGCTATAGATAAATTGGCGGAGTCACCTAGTGCAG	12000 fluorescence intensity (a.u.)
CTGATAGAAAATTGCAATCTTCCCACAGGCCAGGGCAGCGCGGAGTCACCTAGTGCAG	33100 fluorescence intensity (a.u.)
TAAAACACGTGATTATACGCCAAAATCATACTGACGTGGGCGGAGTCACCTAGTGCAG	8530 fluorescence intensity (a.u.)
TGTTACTCCATTACTTGATTATGCTCACTTATTTATTTATCGGAGTCACCTAGTGCAG	4200 fluorescence intensity (a.u.)
TCTTCAATCAAACCCTAGAAAGTTCTACTACAGGTCACTACGGAGTCACCTAGTGCAG	25600 fluorescence intensity (a.u.)
ATTAGCAATTAATTAATTATTAATTGGATAATTAATCACTCGGAGTCACCTAGTGCAG	64800 fluorescence intensity (a.u.)
TGCAAATTTTGGACAGACACCAATCCAGATTTTCCGGGTGCGGAGTCACCTAGTGCAG	9960 fluorescence intensity (a.u.)
AATTCACTGCTGTTAATTACACCAGCACTTATGAACAGTGCGGAGTCACCTAGTGCAG	4980 fluorescence intensity (a.u.)
AAGGATTGCTATGATTCATATTTGTCACCGTGGGTACCAGCGGAGTCACCTAGTGCAG	4490 fluorescence intensity (a.u.)
TACCTGATGAGTGATAAGACTCAACTGACGTGCTGTGCTGCGGAGTCACCTAGTGCAG	7380 fluorescence intensity (a.u.)
GCTTGTTTAATGTTAATTATTGTTATGTTTTGGTTAAACTCGGAGTCACCTAGTGCAG	6820 fluorescence intensity (a.u.)
